The results in this text go back to the antibiotic and cytotoxicity screens of Wong et al. (2023).

One experiment concerns HSkMC. Briefly: cytotoxicity call (relative viability < 0.9). The following applies: 10 µM.
The subject of another experiment is HepG2. Briefly: cytotoxicity call (relative viability < 0.9). As to conditions: 10 µM.
A further experiment concerns S. aureus RN4220. Briefly: growth inhibition call (relative growth <= 0.2). As to conditions: 50 µM.

This is one part of the list.

Regarding `CN(C)Cc1cn(CC[C@@H]2CC[C@@H](NS(=O)(=O)c3ccccc3)[C@H](CO)O2)nn1`, the cytotoxicity call with HSkMC and with HepG2 was “inactive” in each case. Also, in the experiment with S. aureus RN4220, the growth inhibition call is “inactive”.

With `CNC[C@H]1Oc2ccc(NC(=O)Cn3cnnn3)cc2CC(=O)N([C@@H](C)CO)C[C@H]1C`, the cytotoxicity call with HSkMC and with HepG2 was “inactive” in each case. Also, the growth inhibition call with S. aureus RN4220 was “inactive”.

On to `COc1ccc(S(=O)(=O)Nc2cccc3c2O[C@@H](CN(C)S(=O)(=O)c2ccc(OC)cc2)[C@@H](C)CN([C@H](C)CO)C3=O)cc1`, for which the cytotoxicity call with HSkMC and in the experiment with HepG2 was “inactive” each time. Moreover, the growth inhibition call in the experiment on S. aureus RN4220 was “inactive”.

As for `NC(=O)Cn1cnc2sc3c(c2c1=O)CCC3`, the cytotoxicity call in the experiment on HSkMC and in the experiment on HepG2 was “inactive” throughout. In addition, in the experiment with S. aureus RN4220, the growth inhibition call was “inactive”.

Turning to `C[C@H](CO)N1C[C@H](C)[C@@H](CN(C)C(=O)Nc2cccc3ccccc23)Oc2ccc(NC(=O)Nc3ccccc3)cc2C1=O`, the cytotoxicity call in the experiment with HSkMC and in the experiment on HepG2 was “inactive” each time. The growth inhibition call with S. aureus RN4220 was “inactive”.

In the case of `CCCN(CCC)CCc1cccc2c1CC(=O)N2.Cl`, the cytotoxicity call in the experiment on HSkMC and with HepG2 was “inactive” each time. For the same molecule, the growth inhibition call in the experiment on S. aureus RN4220 is “inactive”.

For the molecule `C[C@H](CO)N1C[C@H](C)[C@@H](CN(C)S(=O)(=O)c2ccc(Cl)cc2)OCCCC[C@H](C)Oc2ccc(NC(=O)Nc3ccc(C(F)(F)F)cc3)cc2C1=O`, the cytotoxicity call in the experiment with HSkMC and in the experiment with HepG2 was “inactive” each time. In addition, in the experiment with S. aureus RN4220, the growth inhibition call was “inactive”.

For `O=C(C[C@@H]1C=C[C@@H](NC(=O)c2ccc3c(c2)OCO3)[C@@H](CO)O1)NCc1ccc(Oc2ccccc2)cc1`, the cytotoxicity call in the experiment on HSkMC and in the experiment on HepG2 was “inactive” throughout. Further, the growth inhibition call with S. aureus RN4220 is “inactive”.

Regarding `C[C@@H]1CN([C@H](C)CO)C(=O)c2cc(NS(=O)(=O)c3ccc(F)cc3)ccc2O[C@@H](C)CCCCO[C@H]1CN(C)C(=O)Nc1ccc2c(c1)OCO2`, the cytotoxicity call in the experiment on HSkMC and in the experiment on HepG2 was “inactive” throughout. In addition, in the experiment with S. aureus RN4220, the growth inhibition call is “inactive”.

With `CN1C(=O)c2cc(NC(=O)c3cnccn3)ccc2OC[C@@H]2O[C@H](CC(=O)NCC3CCCCC3)CC[C@H]21`, the cytotoxicity call with HSkMC and in the experiment on HepG2 was “inactive” each time. Besides, the growth inhibition call with S. aureus RN4220 was “inactive”.

Take `C[C@@H]1CN([C@H](C)CO)C(=O)CCCn2nncc2CO[C@H]1CN(C)S(=O)(=O)c1ccc(Cl)cc1`: the cytotoxicity call in the experiment with HSkMC and with HepG2 was “inactive” each time. For the same molecule, the growth inhibition call in the experiment with S. aureus RN4220 was “inactive”.

As to `C[C@H](CO)N1C[C@H](C)[C@H](CN(C)C(=O)Nc2ccc(N3CCCCC3)cc2)OCc2cnnn2CCCC1=O`, the cytotoxicity call in the experiment on HSkMC and in the experiment with HepG2 was “inactive” each time. Besides, in the experiment on S. aureus RN4220, the growth inhibition call was “inactive”.

For `C[C@H](CO)N1C[C@H](C)[C@H](CN(C)CC2CCCCC2)OCCCC[C@H](C)Oc2ccc(NC(=O)Nc3ccc(C(F)(F)F)cc3)cc2C1=O`, the cytotoxicity call in the experiment on HSkMC and in the experiment on HepG2 was “active” in each case. The growth inhibition call with S. aureus RN4220 is “inactive”.

`Cn1c(=O)[nH]c(=O)c2c1nc(N1CCN(CC(N)=O)CC1)n2C/C=C/c1ccccc1`: the cytotoxicity call in the experiment on HSkMC and in the experiment on HepG2 was “inactive” each time. For the same molecule, the growth inhibition call in the experiment on S. aureus RN4220 is “inactive”.

On to `Cc1ccc(S(=O)(=O)N(C)C[C@H]2OCCCC[C@H](C)Oc3ccc(NS(=O)(=O)c4ccc(Cl)cc4)cc3C(=O)N([C@H](C)CO)C[C@H]2C)cc1`, for which the cytotoxicity call in the experiment with HSkMC and in the experiment with HepG2 was “inactive” throughout. Moreover, in the experiment with S. aureus RN4220, the growth inhibition call is “inactive”.

With `C[C@@H]1CN([C@H](C)CO)C(=O)c2cc(NC(=O)Cc3cn(C)c4ccccc34)ccc2O[C@H]1CN(C)Cc1ccc(C(F)(F)F)cc1`, the cytotoxicity call in the experiment on HSkMC and in the experiment on HepG2 was “inactive” in each case. Besides, the growth inhibition call in the experiment with S. aureus RN4220 is “inactive”.

For `C[C@@H]1CN([C@H](C)CO)C(=O)c2cc(NC(=O)Nc3ccccc3)ccc2O[C@H]1CN(C)Cc1ccc(-c2ccccc2)cc1`, the cytotoxicity call in the experiment on HSkMC was “inactive”. In addition, the cytotoxicity call in the experiment with HepG2 was “active”. In addition, in the experiment with S. aureus RN4220, the growth inhibition call is “inactive”.

For `C[C@@H]1CN([C@H](C)CO)C(=O)Cc2cc(NS(=O)(=O)c3ccccc3)ccc2O[C@H]1CN(C)Cc1ccc(C(=O)O)cc1`, the cytotoxicity call in the experiment with HSkMC and with HepG2 was “inactive” each time. The growth inhibition call with S. aureus RN4220 was “inactive”.

On to `COc1ccc(NC(=O)N(C)C[C@H]2Oc3c(NS(C)(=O)=O)cccc3C(=O)N([C@@H](C)CO)C[C@@H]2C)cc1`, for which the cytotoxicity call with HSkMC and in the experiment on HepG2 was “inactive” throughout. Besides, the growth inhibition call with S. aureus RN4220 was “inactive”.

Regarding `C=C[C@@H]1[C@@H](O[C@@H]2O[C@H](CO)[C@@H](O)[C@H](O)[C@@H]2O)OC=C(C(=O)O)[C@H]1CC(=O)O`, the cytotoxicity call in the experiment with HSkMC and in the experiment with HepG2 was “inactive” each time. Moreover, the growth inhibition call with S. aureus RN4220 is “inactive”.

`CCS(=O)(=O)N1C[C@]2(CCN(CC2)C(=O)Nc2c(noc2C)C)c2c(n(c3cc(ccc23)OC)C)[C@@H]1CO`: the cytotoxicity call in the experiment with HSkMC and in the experiment on HepG2 was “inactive” in each case. The growth inhibition call with S. aureus RN4220 was “inactive”.

For `COc1ccc(NC(=O)N(C)C[C@@H]2OCCCC[C@@H](C)Oc3ccc(NC(=O)Cc4ccccc4)cc3C(=O)N([C@H](C)CO)C[C@@H]2C)cc1`, the cytotoxicity call in the experiment on HSkMC and with HepG2 was “inactive” each time. Moreover, in the experiment with S. aureus RN4220, the growth inhibition call is “inactive”.

In the case of `CC1Cc2ccccc2N1NC(=O)c1ccc(Cl)c(S(N)(=O)=O)c1` (centres undefined), the cytotoxicity call in the experiment with HSkMC and in the experiment on HepG2 was “inactive” each time. Moreover, the growth inhibition call in the experiment on S. aureus RN4220 was “inactive”.

For `O=C(CN1CCOCC1)NCC[C@@H]1CC[C@@H](NC(=O)c2ccc3c(c2)OCO3)[C@H](CO)O1`, the cytotoxicity call in the experiment on HSkMC and in the experiment with HepG2 was “inactive” throughout. Besides, the growth inhibition call in the experiment with S. aureus RN4220 is “inactive”.

Consider `Cc1noc(C)c1S(=O)(=O)N(C)C[C@@H]1Oc2ccc(NS(=O)(=O)c3cccs3)cc2CC(=O)N([C@H](C)CO)C[C@H]1C`, for which the cytotoxicity call in the experiment on HSkMC and with HepG2 was “inactive” in each case. The growth inhibition call in the experiment with S. aureus RN4220 was “inactive”.

For the molecule `C[C@@H]1CCCCO[C@@H](CN(C)S(=O)(=O)c2cn(C)cn2)[C@@H](C)CN([C@H](C)CO)C(=O)c2cc(NS(C)(=O)=O)ccc2O1`, the cytotoxicity call with HSkMC and in the experiment on HepG2 was “inactive” in each case. Besides, the growth inhibition call with S. aureus RN4220 is “inactive”.

Regarding `C[C@H](CO)N1C[C@H](C)[C@H](CN(C)C(=O)c2cnccn2)Oc2ncc(/C=C/c3ccccc3)cc2C1=O`, the cytotoxicity call in the experiment with HSkMC and in the experiment on HepG2 was “inactive” each time. Also, the growth inhibition call with S. aureus RN4220 is “inactive”.

Regarding `Cc1occc1CN`, the cytotoxicity call with HSkMC and in the experiment with HepG2 was “inactive” in each case. Moreover, the growth inhibition call in the experiment on S. aureus RN4220 is “inactive”.

For `C[C@H]1CN([C@@H](C)CO)C(=O)c2cccc(NS(C)(=O)=O)c2O[C@@H]1CN(C)Cc1ccc(C(=O)Nc2ccccc2N)cc1`, the cytotoxicity call in the experiment on HSkMC and in the experiment with HepG2 was “inactive” each time. The growth inhibition call with S. aureus RN4220 was “inactive”.

Regarding `O=C(/C=C/c1cccc(-c2cn(-c3cccc(C(=O)N4CCC5(CC4)C(=O)NCN5c4ccccc4)c3)nn2)c1)NO`, the cytotoxicity call with HSkMC and in the experiment on HepG2 was “inactive” in each case. In addition, the growth inhibition call in the experiment on S. aureus RN4220 was “inactive”.

On to `NC(=O)c1ccccc1O`, for which the cytotoxicity call with HSkMC and in the experiment on HepG2 was “inactive” in each case. For the same molecule, the growth inhibition call in the experiment on S. aureus RN4220 was “inactive”.

Consider `C[C@@H]1CN([C@H](C)CO)C(=O)c2cccc(NC(=O)c3ccncc3)c2O[C@H]1CN(C)Cc1ccc2c(c1)OCO2`, for which the cytotoxicity call with HSkMC and in the experiment with HepG2 was “inactive” each time. The growth inhibition call in the experiment on S. aureus RN4220 is “inactive”.

As for `CO[C@H](CN(C)S(=O)(=O)c1cccc(Cl)c1)[C@@H](C)CN([C@@H](C)CO)S(=O)(=O)c1cccc(Cl)c1`, the cytotoxicity call in the experiment with HSkMC and with HepG2 was “inactive” in each case. The growth inhibition call in the experiment with S. aureus RN4220 was “inactive”.

For `O=C(Nc1ccc(-c2nc3cc(NC(=O)c4ccccc4[N+](=O)[O-])ccc3o2)cc1)c1ccccc1[N+](=O)[O-]`, in the experiment with HSkMC, the cytotoxicity call was “inactive”. Also, the cytotoxicity call with HepG2 is “active”. Moreover, the growth inhibition call in the experiment on S. aureus RN4220 is “inactive”.

Consider `C[C@@H]1CN([C@H](C)CO)C(=O)c2cc(NS(=O)(=O)c3cn(C)cn3)ccc2O[C@@H]1CN(C)C(=O)Nc1ccccc1`, for which the cytotoxicity call in the experiment with HSkMC and with HepG2 was “inactive” in each case. Moreover, in the experiment with S. aureus RN4220, the growth inhibition call was “inactive”.

As for `COc1ccccc1-c1ccc2c(c1)O[C@H](CN(C)CC1CCOCC1)[C@H](C)CN([C@@H](C)CO)S2(=O)=O`, the cytotoxicity call in the experiment on HSkMC (human skeletal muscle cells) and in the experiment with HepG2 was “inactive” in each case. Besides, in the experiment on S. aureus RN4220, the growth inhibition call is “inactive”.

Consider `C[C@@H]1CCCCO[C@@H](CN(C)Cc2ccc(C(=O)O)cc2)[C@H](C)CN([C@@H](C)CO)C(=O)c2cc(NC(=O)CCC(F)(F)F)ccc2O1`, for which the cytotoxicity call in the experiment with HSkMC and in the experiment on HepG2 was “inactive” each time. Further, the growth inhibition call with S. aureus RN4220 was “inactive”.

As for `Cc1noc(C)c1S(=O)(=O)N(C)C[C@H]1Oc2ccc(NS(=O)(=O)c3ccc(Cl)cc3)cc2CC(=O)N([C@H](C)CO)C[C@@H]1C`, the cytotoxicity call in the experiment with HSkMC and in the experiment with HepG2 was “inactive” each time. The growth inhibition call in the experiment on S. aureus RN4220 is “inactive”.

Regarding `Nc1ccc(-c2nn[nH]n2)cc1F`, the cytotoxicity call in the experiment with HSkMC and in the experiment on HepG2 was “inactive” in each case. In addition, the growth inhibition call in the experiment with S. aureus RN4220 is “inactive”.

On to `C[C@H]1CN([C@@H](C)CO)C(=O)c2cccc(NC(=O)C3CC3)c2O[C@@H]1CN(C)S(=O)(=O)c1cccs1`, for which the cytotoxicity call with HSkMC and in the experiment on HepG2 was “inactive” throughout. Besides, in the experiment with S. aureus RN4220, the growth inhibition call is “inactive”.

Turning to `CC(C)Cc1ccc([C@@H](C)C(=O)Nc2ccc(Cl)cc2)cc1`, the cytotoxicity call with HSkMC was “inactive”. In addition, in the experiment with HepG2, the cytotoxicity call is “active”. The growth inhibition call in the experiment on S. aureus RN4220 was “inactive”.

Consider `Cc1ccc(S(=O)(=O)Nc2ccc3c(c2)C(=O)N([C@@H](C)CO)C[C@@H](C)[C@H](CN(C)S(=O)(=O)c2ccc(F)cc2)OCCCC[C@@H](C)O3)cc1`, for which the cytotoxicity call in the experiment with HSkMC and in the experiment on HepG2 was “inactive” in each case. Also, in the experiment with S. aureus RN4220, the growth inhibition call is “inactive”.

Take `C[C@@H]1CN([C@@H](C)CO)C(=O)c2cc(/C=C/c3ccccc3)cnc2O[C@H]1CN(C)C(=O)Nc1ccc(C(F)(F)F)cc1`: the cytotoxicity call in the experiment with HSkMC and in the experiment on HepG2 was “inactive” each time. For the same molecule, in the experiment with S. aureus RN4220, the growth inhibition call was “inactive”.
